Test results taken from PubChem BioAssay AID1508624 (National Center for Advancing Translational Sciences (NCATS), 2021).
The campaign covered roughly 48,000 compounds. About 120 (0.25%) were called active. Another 4% or so got no clear call; they are omitted. The call rests on the fitted dose curve; in most records, active means well fitted activation curve with a large enough effect; inconclusive means small, poorly fitted or top-dose-only effect, or another doubt; inactive means no such curve, though single readings can be large or run the other way. This is a selection; strong and weak results do not stand in their true shares. Where no call is shown, the source filed none.

Experiment: Primary qHTS for Identification of Small Molecule Activators of Huntingtin-Antisense Promoter Activity; further: nearly all actives have a fitted effect of over 55% in size
Details: HEK293 HTT-AS promoter firefly luciferase reporter, 24 h; activity change, positive = activation: at 57.5 µM (top of the series), percent change from vehicle, -100% = no light
Method in brief: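 Luminescence was read after Dual-Glo reagent and a 10 min room-temperature incubation. Values were normalized to vehicle (0% activity) and zero RLU (-100% activity). Reporter HEK293 cells had been exposed to compounds (up to 57.5 uM final) for 24 h.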

Row | SMILES | activity change, positive = activation
1 | Cc1ccccc1OCCCCn1c(-c2ccc(Cl)cc2)nc2ccccc2c1=O | 3.15%
2 | COc1cc(OC)c(NS(=O)(=O)c2ccc3oc(=O)c4ncn(C)c4c3c2)cc1Cl | -13.6%
3 | COc1ccc(C2C=C(c3ccc(Cl)c(Cl)c3)Nc3ncnn32)cc1 (configuration not stated) | 44.5%
4 | CCOC(=O)C1=C(CN2CCN(c3cccc(Cl)c3)CC2)NC(=O)NC1c1ccc(Cl)cc1 (configuration not stated) | inactive: -12.3%
5 | CC(C)(C)c1ccc(OCc2nnc(-c3ccccc3)o2)cc1 | 19%
6 | Cc1ccccc1NC(=O)c1c(C)oc2ccc(O)c(CN3CCOCC3)c12 | -17.4%
7 | NS(=O)(=O)c1ccc(Nc2nc(OCC3CCCCC3)c3[nH]cnc3n2)cc1 | inactive: 1.76%
8 | Cc1ccc(CNC(=O)Nc2cc(C(=O)NCc3ccc(C(C)C)cc3)ccc2N2CCCC2)cc1 | inactive: -12.9%
9 | Cc1ccccc1C(=O)Nc1ccc2nc(SCC(=O)N3CCc4ccccc43)sc2c1 | inactive: -7.96%
10 | COc1ccc(N(C(=O)/C=C\C(=O)Nc2ccc(C)cc2)C(C(=O)NCc2ccco2)c2ccc(C)cc2)cc1 (configuration not stated) | -39.1%
11 | CC(C)(c1ccc(O)cc1)c1ccc(O)cc1 | inactive: -10.7% [at 116 µM, percent change from vehicle, -100% = no light]
12 | O=C(C1CCN(S(=O)(=O)Cc2ccccc2)CC1)N1CCN(c2ccccc2)CC1 | -0.645%
13 | CCOC(=O)COc1ccccc1C1C(C(=O)OC)=C(C)NC2=C1C(=O)c1ccccc12 (configuration not stated) | -7.25%
14 | O=C(NCCSCc1ccc(Cl)cc1)C1CCN(S(=O)(=O)Cc2ccccc2)CC1 | -9.08%
15 | COc1ccc(NC(=O)CC2C(=O)N(c3ccc(F)cc3)C(=O)N2Cc2ccco2)cc1 (configuration not stated) | -10.4%
16 | COC(=O)c1ccc(NC(=O)CC2C(=O)N(c3ccc(Cl)cc3)C(=O)N2Cc2ccco2)cc1 (configuration not stated) | -10.8%
17 | COC(=O)c1cc2c(cc1NC(=O)c1cnn(-c3ccc(C)cc3)c1-n1cccc1)OCO2 | 3.92%
18 | COc1ccccc1-c1cc(C(=O)Nc2ccccc2C(F)(F)F)no1 | 23%
19 | CCOC(=O)c1ccc(NC(=O)Cn2cc(C(=O)c3ccc(CC)cc3)c(=O)c3ccc(C)nc32)cc1 | inactive: -18.3%
20 | COc1ccc(OC)c(CNC(=O)c2ccc(-c3nc(CSc4ccccc4)c(C)o3)cc2)c1 | -17.1%
21 | CC(=O)Nc1ccc(NC(=O)c2ccc3c(c2)NC(=O)c2ccccc2S3)cc1 | -7.28%
22 | Cc1oc2ccc(O)c(CN3CCCCC3)c2c1C(=O)Nc1cccc(C(F)(F)F)c1 | -41%
23 | Cc1nn(C)c2c1c(C(F)(F)F)cc(=O)n2CC(=O)N1CCCCC1C (configuration not stated) | inactive: -13.8%
24 | CCCOc1ccc(-c2nc(N3CCCCC3)c3ccccc3n2)cc1 | 6.47%

Row | SMILES | activity change, positive = activation
25 | Cc1ccc(CCNC(c2ccc(F)cc2)c2nnc(-c3ccccc3Cl)o2)cc1 (configuration not stated) | -12.9%
26 | CCOC(=O)c1cc(C)n(CC2CCC(C(=O)Nc3cccc(C)c3)CC2)c1C (configuration not stated) | 6.07%
27 | CCc1ccc(NC(=O)CC2C(=O)N(c3ccc(Cl)cc3)C(=O)N2Cc2ccco2)cc1 (configuration not stated) | -1.44%
28 | COc1ccc(NC(=O)c2cc3c(=O)n(Cc4ccco4)ccc3nc2C)cc1 | -17.5%
29 | Cc1nc2cccnc2n1-c1cccc(C(=O)N2CCN(c3ccc(Cl)cc3)CC2)c1 | inactive: -45.5%
30 | COc1ccc(-c2cc(C(=O)Nc3cccnc3Cl)no2)cc1OC | 7.19%
31 | COc1ccc(-c2c3c(=O)n(C)c(=O)n(C)c3c3n2-c2ccccc2NC3c2ccco2)cc1 (configuration not stated) | 4.23%
32 | COCCNC(=O)c1cnc2sc(N3CCC(C)CC3)nn2c1=O | 6.81%
33 | Clc1ccc(-c2noc3ncnc(NCCc4ccccc4)c23)cc1 | inactive: -26.5%
34 | COc1cc(C2NC(=O)c3c(sc4c3CCN(C)C4)N2)cc(OC)c1OC (configuration not stated) | inactive: 11.2% [at 11.5 µM, percent change from vehicle, -100% = no light]
35 | Cn1c(Nc2ccc(C(F)(F)F)cc2)nc2cc(Oc3ccnc(-c4ncc(C(F)(F)F)[nH]4)c3)ccc21 | inactive: -24.1%
36 | CCOc1ccc(-n2nc3ccc(NC(=O)COc4ccc(OC)cc4)cc3n2)cc1 | -60.4%
37 | COc1cc(C)cc2oc(=O)c(CC(=O)NCc3cccc(Cl)c3)c(C)c12 | -27.7%
38 | COc1ccc(Cn2ccc3nc(C)c(C(=O)NCc4ccc(F)cc4)cc3c2=O)cc1 | inactive: -19.7%
39 | Cc1c(CCOc2ccc(C(=O)O)cc2)c2cc(Cl)ccc2n1C(c1ccccc1)c1ccccc1 | inactive: -11.7%
40 | Cc1nc2ccn(Cc3cccs3)c(=O)c2cc1C(=O)Nc1ccccc1 | -13.1%
41 | Cc1cc(S(=O)(=O)Nc2ccc(-c3ccc(N4CCCCCC4)nn3)cc2)c(C)cc1Cl | 5.64%
42 | COc1ccc(OC)c(-c2cc(C(=O)Nc3cnn(Cc4ccc(Cl)cc4Cl)c3)no2)c1 | -5.33%
43 | COc1ccc(NC(=O)Cn2c(=O)n(Cc3ccc(C(=O)NCc4ccccc4Cl)cc3)c(=O)c3ccccc32)cc1OC | inactive: -9.81%
44 | O=C1Nc2ccccc2C1(c1ccc(O)cc1)c1ccc(O)cc1 | inactive: -33.7%
45 | Cc1ccc(NC(=O)CSc2nc(-c3cccs3)nc3cc(=O)[nH]n23)cc1 | -7.16%
46 | Cc1nnc(N2CCC(C(=O)NC3CCCCC3)CC2)c2nn(-c3ccc(Cl)cc3)c(C)c12 | inactive: -9.95%
47 | COc1ccc(S(=O)(=O)Nc2cccc(-c3ccc(N4CCC(C)CC4)nn3)c2)cc1OC | 29.9%
